Some of the results follow. At the low end of the ranking the order means little.

This experiment deals with SIX1-Q177R homeodomain (UniProt Q15475). Description: universal protein binding microarray. The settings on record: Universal all-10-mer PBM (8x60K, AMADID 030236), 300 nM GST-tagged protein, Alexa Fluor 488 anti-GST; buffer, salt, pH and temperature not stated; high values mean tight binding; most listed sequences are background and not binding sites; double strand, one strand shown.
As for AATTCCGT, the binding signal is -0.0976 E-score.
With ACCGTCCG, the binding signal was -0.0386 E-score.
As to GACATATC, the binding signal was -0.147 E-score.
AGCGTGGC: the binding signal is -0.23 E-score.
Regarding AGAGCGAC, the binding signal was determined as 0.0604 E-score.
As for CCTCATGC, the binding signal was determined as 0.0961 E-score.
For the sequence CACGCATA, the binding signal amounted to 0.271 E-score.
For GCGTTAAA, the binding signal is -0.12 E-score.
For CGAAGGTC the value was -0.244 E-score; for AACTAGGT, 0.0539 E-score; for GTTAACGA, 0.0384 E-score.
Turning to ACTAATCA, the binding signal was determined as 0.0482 E-score.
With AATGATAT, the binding signal was -0.151 E-score.
For AGTGAGCC the value was 0.00303 E-score.
As to AAGAGGGA, the binding signal was -0.109 E-score.
AGATCTAG: the binding signal is -0.212 E-score.
TATAAAGA: the binding signal was -0.225 E-score.
On to AGTCGATA, for which the binding signal is -0.0922 E-score.
For GCTAGAGA the value was -0.276 E-score; for GGAGTAGA, 0.22 E-score; for CCAACTCA, 0.0184 E-score.
Turning to GCCAGGCA, the binding signal was -0.143 E-score.
With GATACATA, the binding signal was found to be 0.084 E-score.
In the case of AACAGGCC, the binding signal was -0.175 E-score.
Turning to CGGTAATA, the binding signal is -0.0398 E-score.
Take GCAGAGTA: the binding signal was 0.0174 E-score.
For ACCATCTA the value was 0.0926 E-score; for TCAGAACA, 0.228 E-score.
To ACAAGTAC belongs 0.0232 E-score.
On to ATAAGCTG, for which the binding signal was -0.0626 E-score.
With ACAATCAC, the binding signal is -0.129 E-score.
As to ACCAGCGT, the binding signal turned out to be 0.13 E-score.
For AAATGAAA the value was -0.133 E-score; for AGCCTGGC, -0.175 E-score.
Take GCCCGCAA: the binding signal turned out to be 0.0243 E-score.
As for CAGCTCGG, the binding signal amounted to 0.114 E-score.
For the sequence AGGTAAGA, the binding signal was -0.0993 E-score.
Consider AGCGATCG, for which the binding signal was -0.16 E-score.
For CTCTGTAA, the binding signal is -0.0782 E-score.
Turning to CTCATCCA, the binding signal came to 0.0704 E-score.
For CTGTACGA, the binding signal was -0.156 E-score.
In the case of CCTCTTAC, the binding signal is -0.0926 E-score.
AATATTAT: the binding signal is -0.0662 E-score.
In the case of AAGCTGTC, the binding signal is -0.177 E-score.
Consider CATCCGGG, for which the binding signal turned out to be 0.156 E-score.
Regarding AGACTGCT, the binding signal was -0.0959 E-score.
As for GCGCTTCC, the binding signal was -0.206 E-score.
Consider GCCAAGAA, for which the binding signal is -0.163 E-score.
On to TACAACCA, for which the binding signal is -0.0582 E-score.
With AACCTGCG, the binding signal was -0.00114 E-score.
In the case of CTCGCCGC, the binding signal was determined as 0.0626 E-score.
With GCCCCAGC, the binding signal is -0.0349 E-score.
Turning to ACTAGCTA, the binding signal was -0.0861 E-score.
In the case of CCAGAACC, the binding signal is -0.0998 E-score.
For ATAACCAT, the binding signal was -0.299 E-score.
CATTCAGA: the binding signal was -0.0783 E-score.
To CCGGCGTC belongs 0.0885 E-score; to GGCTGGCA, -0.161 E-score; to GCCGTAAA, -0.127 E-score.
For CATATCCC the value was -0.0212 E-score; for ACGTAAAG, -0.0942 E-score.
For GGACTTTA, the binding signal was -0.0833 E-score.
For the sequence GGGCTTGA, the binding signal was -0.083 E-score.
AACGTAAG: the binding signal is -0.171 E-score.
In the case of GTGTCCCA, the binding signal was found to be 0.442 E-score.
In the case of AACGTAAA, the binding signal was -0.0791 E-score.
To ATCTGAAC belongs -0.0714 E-score.
To ACATATGT belongs -0.0457 E-score.
As to GCCGAGGA, the binding signal was 0.0534 E-score.
CATTTCCG: the binding signal came out at 0.047 E-score.
To ACGCCGGC belongs 0.0728 E-score; to ACAAGTAG, 0.1 E-score.
As to GGTGCTTA, the binding signal turned out to be 0.234 E-score.
On to ATAGGCGG, for which the binding signal is 0.143 E-score.
For AATGTGCC the value was -0.106 E-score; for CGTCGGCA, -0.108 E-score; for ACTGCTTG, -0.00639 E-score.
In the case of GCGAAAAA, the binding signal turned out to be 0.0387 E-score.
For the sequence ACTGGTTG, the binding signal stood at 0.0312 E-score.
TCAGAAGA: the binding signal was -0.207 E-score.
For ACGTCGCA the value was -0.192 E-score.
Turning to ACCCTTAT, the binding signal worked out at 0.0222 E-score.
Turning to TCGCAAAA, the binding signal was -0.179 E-score.
For ATCGTTCA, the binding signal is -0.115 E-score.
To CACTTACG belongs 0.206 E-score.
As for CGCTGTAC, the binding signal was -0.0173 E-score.
ACTAATGG: the binding signal was -0.113 E-score.
For GCGATCTA the value was -0.0946 E-score; for CAATTAGA, -0.0183 E-score; for GCTTGTGA, -0.117 E-score.
Take ACACCACA: the binding signal is 0.485 E-score.
To ATACCTCA belongs 0.0988 E-score.
On to AACCAAGG, for which the binding signal is -0.132 E-score.
For ACGATCCA the value was -0.0648 E-score; for GACGTGGC, -0.189 E-score; for CGGGAACA, 0.157 E-score.
As for TAGCCACA, the binding signal is -0.15 E-score.
For CGTGACCA, the binding signal was -0.145 E-score.
With CACAAGTG, the binding signal stood at 0.143 E-score.
With GGCCAATA, the binding signal was -0.156 E-score.
Take GGGCCACA: the binding signal was -0.0947 E-score.
Consider CGCTCGGC, for which the binding signal was found to be 0.00844 E-score.
As to CTGAGCTA, the binding signal was -0.106 E-score.
In the case of CCAAGAAG, the binding signal was -0.0292 E-score.
For CACTACAC the value was 0.443 E-score; for GGAGTCTA, 0.0319 E-score.
On to CTCGCGAC, for which the binding signal was -0.0305 E-score.
As to ACTTAATC, the binding signal is -0.164 E-score.
With ACTTAGCT, the binding signal is -0.0483 E-score.

Values taken from publication PMC10668032.
